The list shows a part of the results. Cut-off read from the data, not from the text of the source: active = 3.2 or more and inactive = the rest. Most of these values are background signal.
How the values were obtained:
Assay in all cases: enrichment score (SH2-bound / input frequency) (ratio); bacterial display of known human phosphotyrosine sites (pTyr-Var adds point mutants) read by sequencing; higher = stronger binding; tyrosines were phosphorylated by kinases first
Conditions in all cases: peptide library: pTyr-Var
SHP2 C-SH2 domain E139D = biological target: SHP2 C-SH2 domain E139D
[1] = biological target: SHP2 C-SH2 domain wild-type
SHP2 N-SH2 domain L43F = biological target: SHP2 N-SH2 domain L43F
SHP2 N-SH2 domain T42A = biological target: SHP2 N-SH2 domain T42A
SHP2 N-SH2 domain T52S = biological target: SHP2 N-SH2 domain T52S
[2] = biological target: SHP2 N-SH2 domain wild-type
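Note: displayed peptides selected on beads carrying the immobilized SH2 domain, with library peptides lacking any tyrosine serving as negative controls.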

Binder	enrichment score (SHP2 C-SH2 domain E139D)	enrichment score [1]	enrichment score (SHP2 N-SH2 domain L43F)	enrichment score (SHP2 N-SH2 domain T42A)	enrichment score (SHP2 N-SH2 domain T52S)	enrichment score [2]
SEHLTYLEFKS [RASGRP1_Y215]	inactive: 0.899	inactive: 1.01	inactive: 0.928	inactive: 0.977	inactive: 0.705	inactive: 1.18
TEDELYQLFLQ [RASGRP2_Y378_S381F]	inactive: 0.726	inactive: 0.658	inactive: 0.708	inactive: 0.593	inactive: 0.668	inactive: 1.12
IGSQRYQLGVR [RB1_Y446_K447Q]	inactive: 0.791	inactive: 0.666	inactive: 0.697	inactive: 0.69	inactive: 0.622	inactive: 0.704
GVRLFYRVRES [RB1_Y454_M457R_YF]	inactive: 0.245	inactive: 0.218	inactive: 0.29	inactive: 0.298	inactive: 0.222	inactive: 0.238
PGGNIYISPLK [RB1_Y805]	inactive: 0.417	inactive: 0.529	inactive: 1.29	inactive: 0.63	inactive: 0.404	inactive: 0.594
SLALFYRKVYH [RBL1_Y792]	inactive: 0.272	inactive: 0.337	inactive: 0.236	inactive: 0.239	inactive: 0.357	inactive: 0.343
SLALFYRNVYH [RBL1_Y792_K794N]	inactive: 0.4	inactive: 0.527	inactive: 0.504	inactive: 0.44	inactive: 0.483	inactive: 0.571
SLALFYRKVFH [RBL1_Y792_YF]	inactive: 0.485	inactive: 0.443	inactive: 0.427	inactive: 0.617	inactive: 0.506	inactive: 0.56
FYRNVYHLASV [RBL1_Y796_K794N]	inactive: 0.811	inactive: 0.642	inactive: 0.683	inactive: 0.591	inactive: 0.839	inactive: 0.649
FFRNVYHLASV [RBL1_Y796_K794N_YF]	inactive: 0.811	inactive: 0.534	inactive: 0.559	inactive: 0.511	inactive: 0.74	inactive: 0.495
FFRKVYHLASV [RBL1_Y796_YF]	inactive: 0.836	inactive: 0.749	inactive: 0.585	inactive: 0.534	inactive: 0.784	inactive: 0.787
VVTFSYKPPGN [RBL2_Y544]	inactive: 1.26	inactive: 1.39	inactive: 1.22	inactive: 1.51	inactive: 1.54	inactive: 1.25
FRDMDYRSFPH [RBM10_Y41_R46H_YF]	inactive: 0.862	inactive: 0.801	inactive: 0.828	inactive: 0.843	inactive: 0.772	inactive: 0.936
MDFRSYPHEFG [RBM10_Y44_R46H_YF]	inactive: 0.903	inactive: 0.706	inactive: 0.817	inactive: 0.926	inactive: 0.853	inactive: 0.8
SFPREYGSQEG [RBM10_Y48_YF]	inactive: 0.494	inactive: 0.548	inactive: 0.571	inactive: 0.678	inactive: 0.438	inactive: 0.548
DVVKDYAFVHM [RBM14_Y114]	inactive: 0.757	inactive: 0.919	inactive: 0.746	inactive: 0.726	inactive: 0.876	inactive: 0.861
DVVKDCAFVHM [RBM14_Y114_Y114C]	inactive: 0.855	inactive: 0.815	inactive: 0.709	inactive: 0.596	inactive: 0.738	inactive: 0.793
YEREQYADRAR [RBM4_Y355]	inactive: 0.615	inactive: 0.526	inactive: 0.516	inactive: 0.472	inactive: 0.58	inactive: 0.791
YEREQYADRTR [RBM4_Y355_A359T]	inactive: 0.432	inactive: 0.393	inactive: 0.443	inactive: 0.254	inactive: 0.45	inactive: 0.447

Binder	enrichment score (SHP2 C-SH2 domain E139D)	enrichment score [1]	enrichment score (SHP2 N-SH2 domain L43F)	enrichment score (SHP2 N-SH2 domain T42A)	enrichment score (SHP2 N-SH2 domain T52S)	enrichment score [2]
FEREQYADRTR [RBM4_Y355_A359T_YF]	inactive: 0.579	inactive: 0.723	inactive: 0.7	inactive: 0.547	inactive: 0.59	inactive: 0.806
FEREQYADRAR [RBM4_Y355_YF]	inactive: 0.686	inactive: 0.64	inactive: 0.54	inactive: 0.448	inactive: 0.615	inactive: 0.721
IYGASYVPFAA [RBM47_Y541]	inactive: 0.858	inactive: 0.973	inactive: 1.09	inactive: 0.733	inactive: 0.922	inactive: 1.04
IFRASYVPFAA [RBM47_Y541_G538R_YF]	inactive: 1.12	inactive: 0.857	inactive: 0.904	inactive: 1.01	inactive: 1.04	inactive: 1.12
RGGDSYGGPPR [RBMX_Y190_R187G]	inactive: 0.495	inactive: 0.507	inactive: 0.578	inactive: 0.541	inactive: 0.643	inactive: 0.809
RVQKRYIFDNV [RCN1_Y115]	inactive: 0.612	inactive: 0.53	inactive: 0.703	inactive: 0.747	inactive: 0.631	inactive: 0.419
AKLDEYIAIAK [RCOR3_Y46]	inactive: 1.15	inactive: 1.21	inactive: 0.93	inactive: 0.764	inactive: 1.07	inactive: 0.878
ARLDEYIAIAK [RCOR3_Y46_K42R]	inactive: 1.07	inactive: 0.876	inactive: 0.77	inactive: 0.827	inactive: 0.741	inactive: 0.935
GGFSRYDEGSG [RECQL5_Y484_D480G]	inactive: 0.66	inactive: 0.559	inactive: 0.722	inactive: 0.465	inactive: 0.568	inactive: 0.779
RHAASYSSDSE [REPS1_Y116]	inactive: 0.561	inactive: 0.545	inactive: 0.52	inactive: 0.403	inactive: 0.52	inactive: 0.656
RHEASYSSDSE [REPS1_Y116_A113E]	inactive: 0.37	inactive: 0.598	inactive: 0.466	inactive: 0.505	inactive: 0.349	inactive: 0.519
RTLSEYARRHV [RERE_Y1259_P1262R]	inactive: 0.633	inactive: 0.492	inactive: 0.421	inactive: 0.567	inactive: 0.4	inactive: 0.534
IENKLYGMSDS [RET_Y1062_P1067S]	inactive: 0.771	inactive: 0.578	inactive: 0.806	inactive: 0.668	inactive: 0.727	inactive: 0.706
IENKLCGMSDP [RET_Y1062_Y1062C]	inactive: 0.728	inactive: 0.639	inactive: 0.657	inactive: 0.69	inactive: 0.613	inactive: 0.717
AFPVSYSSSGA [RET_Y687]	inactive: 0.729	inactive: 0.716	inactive: 0.693	inactive: 0.617	inactive: 0.725	inactive: 0.719
AFPVSYSSSSA [RET_Y687_G691S]	inactive: 0.979	inactive: 0.868	inactive: 0.814	inactive: 0.805	inactive: 0.761	inactive: 1.01
KGRAGYTTVAV [RET_Y752]	inactive: 1.32	inactive: 1.21	inactive: 1.18	inactive: 1.61	inactive: 1.32	inactive: 1.17
LLILEYAKFGS [RET_Y806_V804L_YF]	active: 3.52	inactive: 2.32	inactive: 2.99	inactive: 2.7	inactive: 3.12	active: 3.59

Reference: the supplement of paper PMC10369915
